# Data taken from patent US12630599B2, “CA2 compositions and methods for tunable regulation” (Obsidian Therapeutics, Inc., priority 2019, dated 2026).
# Tests used:
# Type in all cases: cell-based
# primary human T cells [1] = assay: Transduction efficiency: surface CD19 CAR expression by flow cytometry using CD19-Fc (% CAR positive cells); conditions: Example 2
# primary human T cells [2] = assay: Membrane bound IL12 expression within the CAR+ gate, 100 μM acetazolamide vs vehicle (Example 2, Table 11); conditions: 20 hours
# Procedure: On day 0, primary human T cells were stimulated with Dynabeads (T-expander CD3/CD28) at a 3:1 bead: cell ratio in media containing 10% fetal bovine serum (FBS). The next day, lentivirus produced with constructs OT-002007, OT-002008, OT-002113, OT-002009, OT-002010, OT-002012, or OT-002113 were added in the presence of reduced serum (5% FBS). On day 2, the cells were diluted 1:2 with fresh 10% FBS media. […] After overnight incubation, transduction efficiency was analyzed by flow cytometry using CD19-Fc to detect surface CAR expression. Surface IL12 expression within the CAR+ cell gate was detected with an anti-IL12p70 antibody (BD, Franklin Lakes, NJ).
# Nalm-6 cells = assay: 48 hour cytotoxicity assay, T cells co-cultured with Nalm-6 cells (NucRed), Incucyte (Example 4, Table 14)
# Excerpt: The following constructs were transduced into T cells: OT-001356 (nucleic acid sequence SEQ ID NO: 6081 encodes two amino acid sequences, first is SEQ ID NO: 6082 (nucleic acid sequence SEQ ID NO: 6083) second is SEQ ID NO: 6084 (nucleic acid sequence SEQ ID NO: 6085)), OT-001356 (amino acid sequence provided as SEQ ID NO: 6092 and nucleic acid is SEQ ID NO: 6093) OT-001407 (amino acid sequence provided as SEQ ID NO: 6086 and nucleic acid is SEQ ID NO: 6087), OT-001895, OT-002011, OT-002111, OT-0020%, OT-02171. The cells were expanded for 10 days and utilized for cytotoxicity assays. Percentage of CAR positive cells obtained with each of the constructs was as follows: OT-001356: 45.3%; OT-001407, OT-001895: 29.4%, OT-002011: 24.3%, OT-002111: 19.6%, OT-0020%: 6.08%, OT-002171: 13.3%. For cytotoxicity assays, T cells were thawed and co-cultured with Nalm-6 cells (stably expressing NucRed) at different T cells to Nalm-6 cell culture ratios. Target cell viability was determined by measuring cellular fluorescence over time using an Incucyte assay and the results are shown in Table 14.
molecule,measurement,setting,value
OT-001895: constitutively expressed CAR IL12 construct (protein) IWELKKDVYVVELDWYPDAPGEMVVLTCDTPEEDGITWTLDQSSEVLGSGKTLTIQVKEFGDAGQYTCHKGGEVLSHSLLLLHKKEDGIWSTDILKDQKEPKNKTFLRCEAKNYSGRFTCWWLTTISTDLTFSVKSSRGSSDPQGVTCGAATLSAERVRGDNKEYEYSVECQEDSACPAAEESLPIEVMVDAVHKLKYENYTSSFFIRDIIKPDPPKNLQLKPLKNSRQVEVSWEYPDTWSTPHSYFSLTFCVQVQGKSKREKKDRVFTDKTSATVICRKNASISVRAQDRYYSSSWSEWASVPCSGGGGSGGGGSGGGGSRNLPVATPDPGMFPCLHHSQNLLRAVSNMLQKARQTLEFYPCTSEEIDHEDITKDKTSTVEACLPLELTKNESCLNSRETSFITNGSCLASRKTSFMMALCLSSIYEDLKMYQVEFKTMNAKLLMDPKRQIFLDQNMLAVIDELMQALNFNSETVPQKSSLEEPDFYKTKIKLCILLHAFRIRAVTIDRVMSYLNASGSGSGSGSGSGSGSGSGSGSGSGSGSGSGSTTTPAPRPPTPAPTIASQPLSLRPEACRPAAGGAVHTRGLDFACDIYIWAPLAGTCGVLLLSLVITLYCGS,CAR,primary human T cells [1],34.3
same,"IL12 Geometric Mean within CAR+ Gate, DMSO",primary human T cells [2],140686
same,Average Total Nalm6-NucRed Area after 48 hour at E:T ratio of 3:1,"Nalm-6 cells; E:T ratio 3:1, 48 hour","43,856"
same,Average Total Nalm6-NucRed Area after 48 hour at E:T ratio of 10:1,"Nalm-6 cells; E:T ratio 10:1, 48 hour","38,089"
